# From article PMC4336329 (PLoS ONE, 2015)
# Out of some 310,000 compounds screened, about 14,000 (4.5%) showed an effect of 50% or more. Effects have a minus sign here. The list shows a part of the results.
# Target: human ether-à-go-go-related gene (hERG) potassium channel (human, UniProt Q12809)
# Assay: primary screen, population patch clamp on CHO cells stably expressing hERG
# 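Also: peak tail current of the secondary pulse compared with the same well before compound.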
# human ether-à-go-go-related gene (hERG) potassium channel, sequence (Q12809 whole entry, looked up): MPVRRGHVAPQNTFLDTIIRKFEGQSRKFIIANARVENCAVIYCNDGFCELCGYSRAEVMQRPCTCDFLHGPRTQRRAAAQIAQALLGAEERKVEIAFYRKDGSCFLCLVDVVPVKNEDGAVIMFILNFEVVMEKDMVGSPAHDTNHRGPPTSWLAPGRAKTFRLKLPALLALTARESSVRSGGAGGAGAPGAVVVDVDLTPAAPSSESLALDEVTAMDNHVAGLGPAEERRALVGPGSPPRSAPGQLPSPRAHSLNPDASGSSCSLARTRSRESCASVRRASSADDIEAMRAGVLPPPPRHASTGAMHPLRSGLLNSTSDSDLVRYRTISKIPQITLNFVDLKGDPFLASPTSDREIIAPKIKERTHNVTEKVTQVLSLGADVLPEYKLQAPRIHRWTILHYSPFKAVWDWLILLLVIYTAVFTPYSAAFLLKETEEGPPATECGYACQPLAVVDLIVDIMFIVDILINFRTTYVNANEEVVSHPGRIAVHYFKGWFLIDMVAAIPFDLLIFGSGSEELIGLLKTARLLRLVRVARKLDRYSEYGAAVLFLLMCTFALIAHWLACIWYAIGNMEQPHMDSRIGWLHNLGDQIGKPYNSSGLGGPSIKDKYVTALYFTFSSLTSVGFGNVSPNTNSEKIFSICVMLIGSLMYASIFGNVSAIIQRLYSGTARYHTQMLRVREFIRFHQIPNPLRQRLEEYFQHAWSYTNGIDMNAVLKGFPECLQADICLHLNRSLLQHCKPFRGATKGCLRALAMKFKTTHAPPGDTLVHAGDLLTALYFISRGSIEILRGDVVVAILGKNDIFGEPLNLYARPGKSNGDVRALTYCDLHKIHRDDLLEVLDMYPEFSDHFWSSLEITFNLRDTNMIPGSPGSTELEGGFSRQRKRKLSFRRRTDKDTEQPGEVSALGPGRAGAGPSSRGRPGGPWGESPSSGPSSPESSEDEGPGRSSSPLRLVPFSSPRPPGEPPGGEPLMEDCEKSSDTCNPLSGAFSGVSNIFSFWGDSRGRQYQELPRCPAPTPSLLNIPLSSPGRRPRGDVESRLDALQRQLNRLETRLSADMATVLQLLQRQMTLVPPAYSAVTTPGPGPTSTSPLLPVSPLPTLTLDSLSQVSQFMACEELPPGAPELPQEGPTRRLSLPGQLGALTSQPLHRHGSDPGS
row,Compound,"hERG current change (%, negative = inhibition) at 10uM"
1,COC(=O)c1c(NC(=S)NNC(=O)c2ccc(Cl)s2)sc(C(=O)N(C)C)c1C,18.2%
2,CC1(C)c2[nH]c3ccccc3c2C[C@H]2C(=O)N(CCCO)CC(=O)N21,18.1%
3,COc1cccc(CNC(=O)C2CCCN(S(C)(=O)=O)C2)c1 (centres unmarked),4.36%
4,O=C(c1cnn(C(=O)c2ccccc2F)c1)c1ccccc1O,-13.9%
5,Cc1ccc(C)c(-n2c(CNc3ccc(F)cc3)nnc2SCC(N)=O)c1,-18%
6,Cc1cc(NC(=O)C(=O)NCc2cccc(Cl)c2)no1,-1.38%
7,COc1cccc(CCNC(=O)COc2cccc3c2OC(C)(C)C3)c1,-6.6%
8,CC(C)(C)c1ccc2c(c1)N(CC(=O)N1CCCC1)C(=O)CO2,17.3%
9,C/C(=N\n1c(C)cc(C)c(C#N)c1=O)c1cccs1,-4.62%
10,O=c1c2ccccc2nc(-c2ccccc2)n1/N=C/c1ccc([N+](=O)[O-])cc1,12.9%
11,C/C(=N/NS(=O)(=O)c1ccccc1)c1ccc(Cl)cc1,-4.18%
12,N#Cc1ccc(COC(=O)CC(NC(N)=O)c2ccc(Cl)cc2)cc1 (centres unmarked),-59.9%
13,CN1CCN(S(=O)(=O)c2cccc3nsnc23)CC1,11%
14,O=S(=O)(c1ccc(-n2cnnn2)cc1)N(C1CCCCC1)C1CCCCC1,7.19%
15,COc1ccc(S(=O)(=O)NC(CC(=O)O)c2ccco2)cc1 (centres unmarked),-0.532%
16,COc1ccc(Br)cc1CN(C)C(=O)Cc1ccc(S(=O)(=O)N2CCOCC2)s1,-70.4%
17,CCOc1ccc(NC(=O)c2cc([N+](=O)[O-])ccc2N2CCOCC2)cc1,-55.5%
18,Cc1ccc(S(=O)(=O)NCCC(=O)Nc2nnc(C)s2)cc1,-3.9%
19,CCSc1cc(N2CCCC2)nc(-c2ccc(C)cc2)n1,15.3%
20,O=C(CN1CCOCCOCCOCCOCC1)Nc1ccccc1,1.06%
21,O=C(CNC(=O)c1ccccc1Cl)Nc1ccc(F)cc1,-4.76%
22,Cc1ccc(OCC(=O)Nc2nnc(S(=O)(=O)N3CCCCC3)s2)cc1,9.62%
23,Cc1c(CN2CCC(n3nccc3NC(=O)C3CCOC3)CC2)[nH]c2ccccc12 (centres unmarked),-30.6%

row,Compound,"hERG current change (%, negative = inhibition) at 10uM"
1,NC(=O)CSc1nnc(C2CC2)n1Cc1ccccc1,2.65%
2,COCCCNC(=O)c1cc2c(=O)n3cccc(C)c3nc2n(C(C)C)c1=N,-65.5%
3,CCOC(=O)c1sc2ncnc(Nc3cccc(C(=O)O)c3)c2c1C,21.7%
4,COC(=O)c1ccccc1NC(=O)c1cccc(NC(=O)CSCc2ccccc2)c1C,-5.9%
5,O=C(c1ccco1)N1CCN(C(=O)c2cc(-c3ccccn3)nc3ccc(Cl)cc23)CC1,-16.7%
6,O=C(CSc1nnc(NC(=O)C2CC2)s1)Nc1cccc(F)c1,25.7%
7,COc1cc(NC(=O)C2CC(=O)N(Cc3ccco3)C2)c(OC)cc1Cl (centres unmarked),-14.9%
8,N=c1c(C(=O)NC2CCCC2)cc2c(=O)n3ccccc3nc2n1C1CCCC1,-82.2%
9,COc1ccc(NS(=O)(=O)c2cnc[nH]2)cc1,17.4%
10,CC(C)(C)OC(=O)N1CCC(NC(=O)c2[nH]cnc2C(=O)Nc2ccc(Cl)cc2)CC1,18.3%
11,Cc1ccc(-n2nnnc2SCn2nnc3ccccc3c2=O)cc1,-6.18%
12,Cc1ccc(NC(=O)CCc2ccc(S(=O)(=O)N3CCOCC3)cc2)c(C)c1,3.85%
13,COC(=O)c1c(NC(=O)CN2CCN(c3ncccn3)CC2)sc(C(N)=O)c1C,6.53%
14,CN(c1ccccc1)S(=O)(=O)c1ccc2ccccc2c1,25.8%
15,COc1nccnc1NS(=O)(=O)c1ccc(NC(=O)c2cccc(C)c2)cc1,9.78%
16,Cc1cccc(-n2ccnc2SCC(=O)Nc2nccs2)c1C,7.98%
17,CCCCOC(=O)N1CCOCCOCCN(C(=O)OCCCC)CCOCCOCC1,-23.5%
18,Cc1cccc(C)c1OCC(=O)Nc1cc(Cl)ccc1-n1cncn1,2.54%
19,COc1ccc(C(=O)c2c(-c3ccc(OC)cc3)oc3ccc(-c4cc(OC)c(OC)c(OC)c4)cc23)cc1,9.05%
20,CC(=O)NN1C(=O)c2ccccc2NC1c1ccccc1F (centres unmarked),12.7%
21,O=C(Nc1cc(=O)[nH]c(=O)[nH]1)c1cccc(C(F)(F)F)c1,10.1%
22,COc1cccc(C(=O)NNc2nc(C)cc(C)n2)c1,14%
23,Cc1n[nH]c(=O)n1-c1ccc(OC(F)(F)F)cc1,16%

row,Compound,"hERG current change (%, negative = inhibition) at 10uM"
1,Cn1cc(C(O)CN2CCCCC2)c2ccccc21 (centres unmarked),9.26%
2,Cc1ccc(CNS(=O)(=O)NCc2ccc(Cl)cc2)cc1,3.34%
3,Clc1ccc(Cn2cc(Br)cn2)cc1Cl,1.51%
4,CCOC(=O)C1CCN(C(=O)Cc2ccccc2OC)CC1,18.2%
5,O=c1c2c3c(sc2nc(NCCO)n1-c1ccccc1)CCCC3,11.7%
6,Cc1ccc(C(=O)N2CCN(Cc3ccc4c(c3)OCO4)CC2)cc1C,-14.4%
7,CCSC1=N/C(=C\c2cccc(F)c2)C(=O)S1,10.4%
8,CCOC(=O)C1CCCN(S(=O)(=O)c2ccc(-c3cc(C)no3)s2)C1 (centres unmarked),-26.1%
9,CN(C)CCCOC(=O)c1cc2ccccc2o1.Cl,-8.89%
10,O=C(Nc1cc(C(F)(F)F)ccc1N1CCOCC1)c1ccc(Br)o1,5.27%
11,CCOc1cccc(-n2nnnc2-c2ccc(OC)cc2)c1,-17.2%
12,CC(C)Cc1nc2n[nH]c(N)c2c2c1COC(C)(C)C2,2.17%
13,N/C(Cc1ccc([N+](=O)[O-])cc1)=N\OC(=O)c1ccccc1Br,-57.7%
14,Cc1ccc(S(=O)(=O)NCC(C)NS(=O)(=O)c2ccc(C)cc2)cc1 (centres unmarked),-11.4%
15,Cc1ccc(OCCC(=O)OCC(=O)N2CCN(S(=O)(=O)c3ccc(C)cc3)CC2)cc1,-24.6%
16,O=C(NCc1ccccc1)c1cc[n+](CC(=O)c2cccs2)cc1.[Br-],-30.3%
17,Cc1cc(C)n2c(SCC(=O)NC3CCCC(C)C3C)nnc2n1 (centres unmarked),9.5%
18,CCCN1C(=O)/C(=C/c2nc3ccccc3c(=O)[nH]2)c2ccccc21,1.75%
19,COc1ccccc1NC(=O)NCCc1ccccc1,8.91%
20,Cc1ccc(C(=O)N/N=C/c2cccc(OC(=O)/C=C/c3ccco3)c2)cn1,11%
21,Cc1ccc(NC(=O)c2ccc(OCc3c(C)noc3C)cc2)cc1,-39%
22,Cc1ccc(-n2c(-c3ccccc3)n[nH]c2=S)c(C)c1,7.9%
23,Cc1cc(C)nc(NC(=O)C(C)C)n1,-5.03%

row,Compound,"hERG current change (%, negative = inhibition) at 10uM"
1,O=C(COC(=O)c1cc2ccccc2oc1=O)c1cccc([N+](=O)[O-])c1,-3.3%
2,Cc1ccccc1OCc1nc2c3c(ncn2n1)-c1ccccc1CC31CCCC1,14.4%
3,COC(=O)c1ccc(NC(=O)C2CCCN2S(=O)(=O)c2ccc(F)cc2)cc1 (centres unmarked),1.24%
4,CCN(Cc1cnn(C)c1)C(=O)c1ccc2nc(Cc3cccc(Cl)c3)oc2c1,-19.8%
5,CS(=O)(=O)Nc1cccc(C(=O)CC2(O)C(=O)Nc3ccccc32)c1 (centres unmarked),8.15%
6,CC(O)(CS(=O)(=O)c1ccccc1)C(=O)Nc1ccc(C(F)(F)F)cc1 (centres unmarked),-11.3%
7,O=C(Nc1ccc(S(=O)(=O)N2CCOCC2)cc1)C1CC1,12.9%
8,CCC(=O)/C=C1/Sc2ccc(OC)cc2N1CC,-4.45%
9,COc1ccnc(N2CCN(c3cccc(C(F)(F)F)c3)CC2)c1C#N,41.6%
10,COc1ccc(OC)c(S(=O)(=O)Nc2ccc(OCC(=O)O)cc2)c1,23.9%
11,CSc1ccccc1NC(=O)c1ccccc1N(Cc1ccccc1)S(C)(=O)=O,-4.52%
12,O=C(NCC(=O)N(c1ccccc1)C(C(=O)NCC1CCCO1)c1ccccc1)c1cccs1 (centres unmarked),0.228%
13,Cc1ccccc1-n1nnnc1SCC(=O)NNC(=O)c1ccc(NC(=O)CC#N)cc1,4.31%
14,CCOC(=O)c1nc2ccccc2c(C)c1C.Cl,-5.73%
15,CN(C(=O)c1ccccc1C(=O)OCC(=O)Nc1ccc(OC(F)F)cc1)c1ccccc1,-54%
16,COc1ccc2nc(NC(=O)CSc3nnnn3C3CCCCC3)sc2c1,4.84%
17,COc1cccc(-n2nnc3c(=O)n(Cc4cccc(C)c4)cnc32)c1,-10.8%
18,COc1cccc(NC(=O)c2cccc(C(=O)Nc3cccc(OC)c3)c2)c1,16.3%
19,COc1ccc(C(Nc2cccc([N+](=O)[O-])c2)P(=O)(OC(C)C)OC(C)C)cc1 (centres unmarked),-31.5%
20,O=C(CN1CCN(C(C(=O)Nc2ccc(Cl)cc2C(F)(F)F)c2ccccc2)CC1)NC1CC1 (centres unmarked),-70.2%
